The IC50 comes from the fitted curve, where viability falls to half of the control; fits outside the tested doses are given as limits. The AUC spans the tested range (256-fold, ending at the top dose) of the same fit; values near 1 show little effect. Where the top dose is marked as inferred, it was derived from the fitted curves, not read from the paper.
Compound: O=C1NC(=O)/C(=C\c2ccc3nccnc3c2)S1 [AS605240]
Experiment: Viability of human cancer cell lines after 72 h of drug (GDSC screen)
Conditions: top dose inferred
Experimental: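 Human cancer cell lines in 384-well plates, medium with 10% serum, drug for 72 h over a 256-fold dose range (nine 2-fold or five 4-fold steps up to the top dose). Adherent lines were fixed and stained with the nucleic acid dye Syto60, suspension lines read with resazurin; signal relative to control wells, capped at 0 and 100%. One two-parameter sigmoid per drug and line, fitted in a mixed model over all curves with the slope shared within a line.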

Cell Line | AUC | IC50
NCI-H2141 (small cell lung carcinoma, suspension, top dose 20 µM) | 0.784 | 8.24 µM
NCI-H2170 (lung squamous cell carcinoma, adherent, top dose 20 µM) | 0.931 | > 20 µM
NCI-H2171 (small cell lung carcinoma, suspension, top dose 20 µM) | 0.917 | > 20 µM
NCI-H2172 (non-small cell lung carcinoma, adherent, top dose 20 µM) | 0.979 | > 20 µM
NCI-H2196 (small cell lung carcinoma, adherent, top dose 20 µM) | 0.963 | > 20 µM
NCI-H2227 (small cell lung carcinoma, semi-adherent, top dose 20 µM) | 0.713 | 5.46 µM
NCI-H2228 (lung adenocarcinoma, adherent, top dose 20 µM) | 0.896 | > 20 µM
NCI-H2291 (lung adenocarcinoma, adherent, top dose 20 µM) | 0.984 | > 20 µM
NCI-H2342 (lung adenocarcinoma, adherent, top dose 20 µM) | 0.902 | > 20 µM
NCI-H2347 (lung adenocarcinoma, adherent, top dose 20 µM) | 0.766 | 8.9 µM
NCI-H2405 (lung adenocarcinoma, adherent, top dose 20 µM) | 0.453 | 0.917 µM
NCI-H2444 (non-small cell lung carcinoma, adherent, top dose 20 µM) | 0.737 | 6.63 µM
NCI-H2452 (mesothelioma, adherent, top dose 20 µM) | 0.984 | > 20 µM
NCI-H3122 (lung adenocarcinoma, adherent, top dose 20 µM) | 0.746 | 6.49 µM
NCI-SNU-1 (stomach, suspension, top dose 20 µM) | 0.703 | 4.75 µM
NCI-SNU-5 (stomach, suspension, top dose 20 µM) | 0.921 | > 20 µM
NCI-SNU-16 (stomach, suspension, top dose 20 µM) | 0.991 | > 20 µM
NEC8 (testis, adherent, top dose 20 µM) | 0.96 | > 20 µM
NH-12 (neuroblastoma, adherent, top dose 20 µM) | 0.817 | 12.9 µM
NK-92MI (lymphoid neoplasm, suspension, top dose 20 µM) | 0.858 | 14.6 µM
NKM-1 (acute myeloid leukaemia, suspension, top dose 20 µM) | 0.53 | 1.51 µM

Cell Line | AUC | IC50
NMC-G1 (glioma, adherent, top dose 20 µM) | 0.835 | 17.7 µM
NOMO-1 (acute myeloid leukaemia, suspension, top dose 20 µM) | 0.534 | 1.57 µM
NOS-1 (osteosarcoma, adherent, top dose 20 µM) | 0.39 | 0.581 µM
NTERA-2 cl.D1 (testis, adherent, top dose 20 µM) | 0.901 | > 20 µM
NU-DUL-1 (B-cell lymphoma, suspension, top dose 20 µM) | 0.712 | 4.3 µM
NUGC-3 (stomach, adherent, top dose 20 µM) | 0.923 | > 20 µM
NUGC-4 (stomach, adherent, top dose 20 µM) | 0.985 | > 20 µM
NY (osteosarcoma, adherent, top dose 20 µM) | 0.976 | > 20 µM
OACM5-1 (oesophagus, semi-adherent, top dose 20 µM) | 0.811 | 12.3 µM
OACp4C (oesophagus, adherent, top dose 20 µM) | 0.303 | 0.31 µM
OAW-28 (ovary, adherent, top dose 20 µM) | 0.799 | 12.6 µM
OAW-42 (ovary, adherent, top dose 20 µM) | 0.666 | 3.79 µM
OC-314 (ovary, adherent, top dose 20 µM) | 0.937 | > 20 µM
OCI-AML2 (acute myeloid leukaemia, suspension, top dose 20 µM) | 0.061 | < 0.0781 µM
OCI-AML3 (acute myeloid leukaemia, suspension, top dose 20 µM) | 0.193 | 0.182 µM
OCI-AML5 (acute myeloid leukaemia, suspension, top dose 20 µM) | 0.351 | 0.503 µM
OCI-LY-19 (B-cell lymphoma, suspension, top dose 20 µM) | 0.211 | 0.194 µM
OCI-M1 (acute myeloid leukaemia, suspension, top dose 20 µM) | 0.268 | 0.333 µM
OCUB-M (breast, adherent, top dose 20 µM) | 0.862 | 13.4 µM
OCUM-1 (stomach, adherent, top dose 20 µM) | 0.953 | > 20 µM
OE19 (oesophagus, adherent, top dose 20 µM) | 0.986 | > 20 µM

Cell Line | AUC | IC50
OE21 (oesophagus, adherent, top dose 20 µM) | 0.931 | > 20 µM
OE33 (oesophagus, adherent, top dose 20 µM) | 0.84 | 17.8 µM
OMC-1 (cervix, adherent, top dose 20 µM) | 0.896 | > 20 µM
ONS-76 (medulloblastoma, adherent, top dose 20 µM) | 0.55 | 1.73 µM
OPM-2 (myeloma, suspension, top dose 20 µM) | 0.887 | 15.2 µM
OS-RC-2 (kidney, adherent, top dose 20 µM) | 0.95 | > 20 µM
OSC-19 (head and neck, adherent, top dose 20 µM) | 0.72 | 5.41 µM
OSC-20 (head and neck, adherent, top dose 20 µM) | 0.876 | > 20 µM
OV-7 (ovary, adherent, top dose 20 µM) | 0.76 | 10.8 µM
OV-17R (ovary, adherent, top dose 20 µM) | 0.974 | > 20 µM
OV-56 (ovary, adherent, top dose 20 µM) | 0.989 | > 20 µM
OV-90 (ovary, adherent, top dose 20 µM) | 0.466 | 0.987 µM
OVCA420 (ovary, adherent, top dose 20 µM) | 0.97 | > 20 µM
OVCA433 (ovary, adherent, top dose 20 µM) | 0.974 | > 20 µM
OVCAR-3 (ovary, adherent, top dose 20 µM) | 0.974 | > 20 µM
OVCAR-4 (ovary, adherent, top dose 20 µM) | 0.806 | 17 µM
OVCAR-5 (ovary, adherent, top dose 20 µM) | 0.915 | > 20 µM
OVCAR-8 (ovary, adherent, top dose 20 µM) | 0.894 | 19.6 µM
OVISE (ovary, adherent, top dose 20 µM) | 0.736 | 7.49 µM
OVK-18 (ovary, adherent, top dose 20 µM) | 0.938 | > 20 µM
OVKATE (ovary, adherent, top dose 20 µM) | 0.886 | > 20 µM

Cell Line | AUC | IC50
OVMIU (ovary, adherent, top dose 20 µM) | 0.573 | 2.09 µM
OVTOKO (ovary, adherent, top dose 20 µM) | 0.945 | > 20 µM
P12-ICHIKAWA (T-cell lymphoblastic leukaemia, suspension, top dose 20 µM) | 0.544 | 1.6 µM
P30-OHK (lymphoblastic leukaemia, suspension, top dose 20 µM) | 0.869 | 13.5 µM
P31-FUJ (acute myeloid leukaemia, suspension, top dose 20 µM) | 0.989 | > 20 µM
P32-ISH (Burkitt lymphoma, suspension, top dose 20 µM) | 0.947 | > 20 µM
PA-1 (ovary, adherent, top dose 20 µM) | 0.6 | 2.2 µM
PA-TU-8902 (pancreas, adherent, top dose 20 µM) | 0.533 | 1.57 µM
PA-TU-8988T (pancreas, adherent, top dose 20 µM) | 0.872 | 19.2 µM
PANC-02-03 (pancreas, adherent, top dose 20 µM) | 0.633 | 3.15 µM
PANC-03-27 (pancreas, adherent, top dose 20 µM) | 0.793 | 8.49 µM
PANC-04-03 (pancreas, adherent, top dose 20 µM) | 0.956 | > 20 µM
PANC-08-13 (pancreas, adherent, top dose 20 µM) | 0.802 | 13.3 µM
PANC-10-05 (pancreas, adherent, top dose 20 µM) | 0.747 | 8.02 µM
PC-3 (prostate, adherent, top dose 20 µM) | 0.881 | > 20 µM
PC-3 [JPC-3] (lung adenocarcinoma, adherent, top dose 20 µM) | 0.763 | 9.52 µM
PC-14 (lung adenocarcinoma, adherent, top dose 20 µM) | 0.857 | 13.5 µM
PCI-4B (head and neck, adherent, top dose 20 µM) | 0.928 | > 20 µM
